Assay results: PubChem BioAssay AID624417 (National Center for Advancing Translational Sciences (NCATS), 2012)
Among all 410,000 compounds or so, about 6,400 (1.6%) were called active. Inconclusive results, whose numbers are uncertain, are shown with a selection of clear calls. Calls follow the shape of the dose curve; as a rule, active = well fitted inhibition curve with a large enough effect; inconclusive = small, poorly fitted or top-dose-only effect; inactive = no such curve, though single readings can be large or run the other way. A potency beside an inconclusive call is a rough fit, not a confirmed value.

The compounds below were run against Glucagon-like peptide 1 receptor (Homo sapiens) (UniProt P43220) (assay: qHTS of GLP-1 Receptor Inverse Agonists (Inhibition Mode)). Conditions: HEK293 GLP-1R CRE-luciferase, luminescence, 24 h, GLP-1R form is constitutively active; series mostly up to 38.3 µM.
How it was run: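 Inverse agonism was detected as reduced cAMP-driven luciferase luminescence after 24 h compound treatment. The cells were HEK293 clones expressing constitutively active human GLP-1R with the reporter. Reporter-only and GPR119 cell lines served as counterscreen controls.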
Also: nearly all actives have a fitted effect of over 55% in size.
Potency is read from the fitted curve at half-maximal effect; tags tell the direction and shape of the fitted curve.

UniProt P43220, sequence (P43220 whole entry, looked up): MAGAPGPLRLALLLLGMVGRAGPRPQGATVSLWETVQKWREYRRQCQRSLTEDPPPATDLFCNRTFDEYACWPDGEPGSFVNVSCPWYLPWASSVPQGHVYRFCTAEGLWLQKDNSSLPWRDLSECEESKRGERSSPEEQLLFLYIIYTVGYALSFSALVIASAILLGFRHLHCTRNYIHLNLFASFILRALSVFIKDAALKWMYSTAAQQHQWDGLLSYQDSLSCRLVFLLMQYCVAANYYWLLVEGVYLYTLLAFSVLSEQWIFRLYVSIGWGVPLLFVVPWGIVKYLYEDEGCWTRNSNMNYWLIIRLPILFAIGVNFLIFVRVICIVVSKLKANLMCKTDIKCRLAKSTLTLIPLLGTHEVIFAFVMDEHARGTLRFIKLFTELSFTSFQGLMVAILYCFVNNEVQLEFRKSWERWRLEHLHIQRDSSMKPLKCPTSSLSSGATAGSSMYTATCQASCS

Potency, inconclusive:
Cc1ccc(Nc2ncnc3ccccc23)cc1 3.16 µM [inhibitor, partial curve, poor fit]
COc1ccc(C(=O)NC2CCCc3c2cnn3-c2cc(F)cc(F)c2)c(OC)c1OC (centres undefined) 3.98 µM [inhibitor, partial curve, poor fit]
CCOC(=O)c1cc(C)n(CC2CCC(C(=O)Nc3ccc(OC)cc3)CC2)c1C (centres undefined) 8.91 µM [inhibitor, partial curve, poor fit]
O=C(Nc1ccc2c(c1)OCO2)C1CCCCN1S(=O)(=O)c1ccccc1 (centres undefined) 5.01 µM [inhibitor, full curve, poor fit]
COCc1ccc(C(=O)NC2CC(C)(C)Cc3c2cnn3-c2ccc(C)cc2)o1 (centres undefined) 10 µM [inhibitor, partial curve, poor fit]
Nc1cccn2c(-c3ccc(Cl)c(Cl)c3)cnc12 10 µM [inhibitor, partial curve]
O=C1C2C3C=CC(c4ccccc4)(C2C(=O)N1c1cccc(Cl)c1)C1C(=O)N(c2cccc(Cl)c2)C(=O)C31 (centres undefined) 8.91 µM [inhibitor, partial curve, poor fit]
CCOc1ccc(OCc2ccc(C(=O)N(CC)CC)cc2)cc1 10 µM [inhibitor, single point]
Cc1nn(-c2ccccc2)nc1C(=O)NNC(=O)c1ccc(C(F)(F)F)cc1 11.2 µM [inhibitor, single point]
Cc1cc(C2=CC(=O)C[C@H](c3ccc4c(c3)OCO4)C2)ccc1F 11.2 µM [inhibitor, partial curve, poor fit]
COc1cc(CN(C(=O)c2ccc(OC(C)C)cc2)c2ccccn2)cc(OC)c1OC 12.6 µM [inhibitor, single point]
COc1ccccc1-c1cn[nH]c1-c1ccc(OCc2ccccc2F)cc1O 14.1 µM [inhibitor, single point]
COc1cccc(-c2cc3nc(-c4ccccc4)cc(N4CCN(C(=O)c5ccoc5)CC4)n3n2)c1 10 µM [inhibitor, partial curve, poor fit]
Cc1ccc(O)c(NC(=O)CCS(=O)(=O)c2nc(-c3cccs3)cc(C(F)(F)F)n2)c1 31.6 µM [inhibitor, single point]
C#CC(C)(CC)NC(=O)c1cc2nc(C3CC3)cc(C(F)(F)F)n2n1 (centres undefined) 28.2 µM [inhibitor, single point]
O=C(CNC(=O)c1cccs1)Nc1ccc2c(c1)OCCO2 10 µM [inhibitor, partial curve]
CCOC(=O)[C@@H]1[C@H]2COc3ccc(Br)cc3[C@@H]2N2C(=O)N(c3cccc(F)c3)C(=O)[C@]12C 11.2 µM [inhibitor, partial curve, poor fit]
NC(COCc1ccccc1)c1csc(Nc2nncc3ccccc23)n1 (centres undefined) 28.2 µM [inhibitor, single point]
COc1ccc(C2c3c(ncn(Cc4ccco4)c3=N)Oc3ccc4ccccc4c32)cc1 (centres undefined) 22.4 µM [inhibitor, single point]
Cc1cccc(-n2cnc3cc(C(=O)NCc4ccccc4Cl)ccc32)c1 14.1 µM [inhibitor, single point]
Cc1ccc(C(C)C)c(OCC(=O)Nc2cc(-c3nc4ccccc4[nH]3)ccc2C)c1 10 µM [inhibitor, partial curve, poor fit]
CC(C)C(=O)NCCc1nc2ccccc2n1CCc1ccccc1 14.1 µM [inhibitor, single point]
CNS(=O)(=O)c1cccc(C(=O)OCc2csc(-c3ccccc3)n2)c1 11.2 µM [inhibitor, partial curve]
O=C(Nc1ccc(Cl)cn1)C1C(c2ccccc2)C1(Cl)Cl (centres undefined) 10 µM [inhibitor, partial curve, poor fit]
Cc1ccccc1OC(C)C(=O)N1CCC(Cc2ccccc2)CC1 (centres undefined) 7.08 µM [inhibitor, partial curve, poor fit]
Cc1ccc(C(c2nnnn2C(C)(C)C)N2CCC(C)CC2)cc1 (centres undefined) 20 µM [inhibitor, single point]
CC(Sc1nc2cc(Cl)ccc2s1)C(=O)Nc1cccc(S(=O)(=O)N2CCOCC2)c1 (centres undefined) 7.94 µM [inhibitor, partial curve]
Brc1ccc(-c2noc(-c3ccccn3)n2)o1 12.6 µM [inhibitor, single point]
C=CC[C@@H](CC(=O)N(CCO)Cc1ccccc1)C(=O)N[C@H](COC(=O)[C@@H](CC=C)CC(=O)OC(C)(C)C)Cc1ccccc1 14.1 µM [inhibitor, single point]
NS(=O)(=O)c1cccnc1Nc1cccc(C(F)(F)F)c1 28.2 µM [inhibitor, single point]
O=C(Nc1ccccc1F)c1cnc(N2CCCCC2)c2ccccc12 22.4 µM [inhibitor, single point]
CCOc1ccc2nc(N3CCCC(C(=O)NCCCN4CCOCC4)C3)sc2c1 (centres undefined) 28.2 µM [inhibitor, single point]
Cc1oc(-c2ccccc2F)nc1Cn1c(SCc2cccc(C(F)(F)F)c2)nc2ccncc21 10 µM [inhibitor, single point]
N#Cc1nc(Cc2ccccc2)oc1N1CCN(c2ccccc2)CC1 28.2 µM [inhibitor, single point]
CN(C)c1ccc(C(O)c2cc3ccccc3s2)cc1 (centres undefined) 8.91 µM [inhibitor, partial curve, poor fit]
COc1ccccc1N1CCN(CCCCCCOc2ccc(F)cc2)CC1 15.8 µM [inhibitor, single point]
CCOc1ccc(-n2c(C)c(C(C)=O)c3cc(O)ccc32)cc1 1 µM [inhibitor, full curve, poor fit]
CCc1c(C2(O)CCCCC2)[nH]c2ccc(C#N)cc12 28.2 µM [inhibitor, single point]
CN(CCOc1ccccc1)C(=O)c1cc(S(=O)(=O)N2CCCCC2)ccc1Cl 11.2 µM [inhibitor, partial curve, poor fit]
Cc1cccc(OCCC(=O)Nc2ccc(C)c(S(=O)(=O)N3CCCCC3)c2)c1 28.2 µM [inhibitor, single point]
C=CCn1c(Cc2cccs2)nnc1SC/C=C/c1ccccc1 28.2 µM [inhibitor, single point]
Cc1ccc(Sc2ccc(C(=O)N(C)C)cc2[N+](=O)[O-])cc1 12.6 µM [inhibitor, single point]
Cn1c(-c2cccc(Br)c2)cnc1NCc1ccccc1O 28.2 µM [inhibitor, single point]
O=C(Nc1nccs1)[C@@H]1CCCN1S(=O)(=O)c1ccc(Cl)cc1 11.2 µM [inhibitor, single point]
Clc1ccc2c(SCC3CO3)c3ccccc3nc2c1 (centres undefined) 28.2 µM [inhibitor, single point]
COc1cccc(/C=C(/C(=O)OCC(=O)NC2CCCCCCC2)c2ccccc2)c1 4.47 µM [inhibitor, full curve, poor fit]
Cc1cccc(C)c1OCc1cc(C(=O)N(C)CCc2ccccn2)no1 11.2 µM [inhibitor, single point]
Cc1ccccc1NC(=O)/C=C/c1ccc([N+](=O)[O-])s1 5.62 µM [inhibitor, partial curve, poor fit]
CCCC1CCC(C(=O)Nn2c(C)nc3ccccc3c2=O)CC1 (centres undefined) 11.2 µM [inhibitor, partial curve, poor fit]
Cc1csc(SCC(=O)Nc2sccc2C#N)n1 31.6 µM [inhibitor, partial curve, poor fit]

Potency, active:
COc1ccccc1/C=C/C1(C(=O)NC2CCCC2)CC(=O)N1c1ccccc1 (centres undefined) 3.16 µM
CCc1cccc2c1Sc1ccccc1CC2N1CCNCC1 (centres undefined) 8.91 µM

Potency, inactive:
O=C(CSc1nnc2ccccn12)c1ccccc1
Cc1cc(Nc2nc3ccccc3c3nnc(C)n23)ccc1Br
CCOC(=O)C1CCN(C(=O)COc2ccc(S(=O)(=O)NC(C)C)cc2Cl)CC1
CCOC(=O)CSc1nc2ccc(NC(=O)c3ccc(Cl)cc3)cc2s1
COC(=O)c1ccc(NC(=O)C2CCN(c3ncnc4c3nc3n4CCCCC3)CC2)cc1
CC(C)N=c1scc(-c2cccs2)n1/N=C/c1ccc(O)c(O)c1O
CCCn1nc2cc(C(=O)NCc3ccc(OC)cc3)ccc2c1OCC
COc1ccccc1NC(=O)c1cc2c(=O)n(Cc3cccs3)ccc2nc1C
Cc1cc2c(cc1S(=O)(=O)Nc1ccc(C(C)C)cc1)OCCN2C
O=C(NCc1ccccc1)NC(=O)c1ccccc1F
COC(=O)NNC(=O)C12CC3CC(CC(C3)C1)C2
O=[N+]([O-])c1ccc(Nc2ccc3ccccc3c2)nc1
